Test results as given in a collection of fitness landscapes (doi:10.1016/j.celrep.2020.107928).
Over roughly 81,000 sequences, “one-hybrid fitness for binding NBS DNA” has its median near -0.1; the highest 2% begin near 0.36. This is one part of the list.

B1: Caulobacter ParB omega fusion; a variant is named by its letters at X, in order, B8GW30 (parent)
chain: MESVVVGEPGMSEGRRGLGRGLSALLGEVDAAPAQAPGEQLGGSREAPIEILQRNPDQPRRTFREEDLEDLSNSIREKGVLQPILVRPSPDTAGEYQIVAGERAWRAAQRAGLKTVPIMVRELDDLAVLEIGIIENVQRADLNVLEEALSYKVLMEKFERTQENIAQTIGKSXSHVANXMRLLXLPDEVQSYLVSGELTAXHARAIAAAADPVALAKQIIEGGLSVRETEALARKAPNLSAGKSKGGRPPRVKDTDTQALESDLSSVLGLDVSIDHRGSTGTLTITYATLEQLDDLCNRLTRGI

Variants of: B1
Assay: one-hybrid fitness for binding NBS DNA (the Noc-binding site; scaled: cognate 1, non-cognate 0); higher = stronger binding
Conditions: with NBS DNA site
Procedure, shortened: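 Fitness here means the log change in variant-to-wild-type read ratio between plasmids sequenced before and after selection. That scale was set so cognate equals 1 and non-cognate equals 0. The selection was a bacterial one-hybrid screen of Caulobacter ParB libraries, four specificity codons randomised, in E. coli USO carrying a HIS3 reporter with the site 19 bp from the promoter, grown 48 hours at 37°C on M9-minus-histidine with 0.1 mM IPTG and 5 mM 3-AT.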

Variant | one-hybrid fitness for binding NBS DNA
TEED | ≤ 0.2
DDAI | ≤ 0.2
QHVA | ≤ 0.2
TATD | ≤ 0.2
IFDG | ≤ 0.2
FSMG | ≤ 0.2
APAT | ≤ 0.2
HAQP | ≤ 0.2
SWRA | ≤ 0.2
QCMS | 0.379
WPYS | ≤ 0.2
QQPY | ≤ 0.2
PKTL | ≤ 0.2
QEPF | ≤ 0.2
AMTS | ≤ 0.2
PPQF | ≤ 0.2
PLRK | ≤ 0.2
DPGL | ≤ 0.2
YYAQ | ≤ 0.2
CQRE | ≤ 0.2
TYVI | ≤ 0.2
FVLV | ≤ 0.2
RRQW | ≤ 0.2
GAVT | ≤ 0.2

Variant | one-hybrid fitness for binding NBS DNA
PLTI | ≤ 0.2
RTEC | ≤ 0.2
TYTV | ≤ 0.2
HVHA | ≤ 0.2
HEAT | ≤ 0.2
SVCI | ≤ 0.2
VDNG | ≤ 0.2
KSMT | ≤ 0.2
LPQG | ≤ 0.2
SPVI | ≤ 0.2
TLWM | ≤ 0.2
APPC | ≤ 0.2
GQTC | ≤ 0.2
ANDE | ≤ 0.2
MCNR | ≤ 0.2
ILET | ≤ 0.2
HHVR | ≤ 0.2
NSLG | ≤ 0.2
NVEF | ≤ 0.2
PMKW | ≤ 0.2
ISYC | ≤ 0.2
MKSH | ≤ 0.2
KLKA | ≤ 0.2
NSRF | ≤ 0.2

Variant | one-hybrid fitness for binding NBS DNA
HRLP | ≤ 0.2
VTYC | ≤ 0.2
YENN | ≤ 0.2
ENYS | ≤ 0.2
DRNA | ≤ 0.2
FPTA | ≤ 0.2
TGFS | ≤ 0.2
IPNT | ≤ 0.2
DYKV | ≤ 0.2
YIHV | ≤ 0.2
SGPM | ≤ 0.2
QISM | ≤ 0.2
TDER | ≤ 0.2
PSCC | ≤ 0.2
RGST | ≤ 0.2
LGHG | ≤ 0.2
TEVF | ≤ 0.2
FSPN | ≤ 0.2
VELR | ≤ 0.2
HLRN | ≤ 0.2
SVYC | ≤ 0.2
ARDT | ≤ 0.2
MQSW | ≤ 0.2
HCPM | ≤ 0.2

Variant | one-hybrid fitness for binding NBS DNA
PKWG | ≤ 0.2
QSFA | ≤ 0.2
YDCR | ≤ 0.2
SNKT | ≤ 0.2
VARV | ≤ 0.2
KIDV | ≤ 0.2
HHFG | ≤ 0.2
GVSI | ≤ 0.2
QSWS | 0.228
PRAG | ≤ 0.2
SRVV | ≤ 0.2
YGLS | ≤ 0.2
FHEG | ≤ 0.2
SWAT | ≤ 0.2
WHCL | ≤ 0.2
MIGR | ≤ 0.2
KGNI | ≤ 0.2
RKCI | ≤ 0.2
EVSH | ≤ 0.2
VHPN | ≤ 0.2
PVGE | ≤ 0.2
EAAI | ≤ 0.2
RKMN | ≤ 0.2
VADR | ≤ 0.2

Variant | one-hybrid fitness for binding NBS DNA
WSIE | ≤ 0.2
FNTV | ≤ 0.2
LFDL | ≤ 0.2
ETYI | ≤ 0.2
RHHW | ≤ 0.2
CSLI | ≤ 0.2
VLEC | ≤ 0.2
RHKP | ≤ 0.2
LFRI | ≤ 0.2
VRRP | ≤ 0.2
MRST | ≤ 0.2
GRAR | ≤ 0.2
PWMG | ≤ 0.2
CLKF | ≤ 0.2
DKVH | ≤ 0.2
YASM | ≤ 0.2
AEMG | ≤ 0.2
VKKM | ≤ 0.2
SQIL | ≤ 0.2
QHLV | ≤ 0.2
PYHK | ≤ 0.2
RNFS | ≤ 0.2
QAVH | ≤ 0.2
SNLA | ≤ 0.2

Variant | one-hybrid fitness for binding NBS DNA
ICWT | ≤ 0.2
TAPV | ≤ 0.2
EPPA | ≤ 0.2
QQVD | ≤ 0.2
EPQN | ≤ 0.2
VLRS | ≤ 0.2
APRH | ≤ 0.2
PTAN | ≤ 0.2
TWPY | ≤ 0.2
LHEA | ≤ 0.2
SEKD | ≤ 0.2
AYPM | ≤ 0.2
GDTQ | ≤ 0.2
RLFV | ≤ 0.2
RFWT | ≤ 0.2
HCEI | ≤ 0.2
GEHA | ≤ 0.2
CELR | ≤ 0.2
WNAT | ≤ 0.2
TIEK | ≤ 0.2
GWNR | ≤ 0.2
RVNW | ≤ 0.2
MRNI | ≤ 0.2
CMMG | ≤ 0.2

Variant | one-hybrid fitness for binding NBS DNA
DHID | ≤ 0.2
VPRG | ≤ 0.2
YFDG | ≤ 0.2
YVCD | ≤ 0.2
QHIT | 0.349
SRHA | ≤ 0.2
SYCT | ≤ 0.2
IFKN | ≤ 0.2
RCGF | ≤ 0.2
RYGE | ≤ 0.2
RIYN | ≤ 0.2
QWAL | ≤ 0.2
NSPT | ≤ 0.2
PVIV | ≤ 0.2
HQWC | ≤ 0.2
QVPR | ≤ 0.2
RCNV | ≤ 0.2
TPIW | ≤ 0.2
KWAK | ≤ 0.2
HSHS | ≤ 0.2
GRER | ≤ 0.2
CYLG | ≤ 0.2
MRTV | ≤ 0.2
CLTT | ≤ 0.2

Variant | one-hybrid fitness for binding NBS DNA
MLAL | ≤ 0.2
NAQC | ≤ 0.2
RHIK | ≤ 0.2
LVQP | ≤ 0.2
QHGK | ≤ 0.2
DDVW | ≤ 0.2
EMPT | ≤ 0.2
QHVC | ≤ 0.2
RFYR | ≤ 0.2
KVKW | ≤ 0.2
QYLC | ≤ 0.2
YGNT | ≤ 0.2
TCKM | ≤ 0.2
QAQF | ≤ 0.2
HPTM | ≤ 0.2
TAER | ≤ 0.2
MLTW | ≤ 0.2
GCHS | ≤ 0.2
RYGP | ≤ 0.2
PLWL | ≤ 0.2
YPTC | ≤ 0.2
QPTS | ≤ 0.2
NDLY | ≤ 0.2
RGFM | ≤ 0.2

Variant | one-hybrid fitness for binding NBS DNA
LRLC | ≤ 0.2
KVVA | ≤ 0.2
CDPR | ≤ 0.2
GKSC | ≤ 0.2
DYSF | ≤ 0.2
ENNT | ≤ 0.2
QIGM | ≤ 0.2
MSRY | ≤ 0.2
QVHA | ≤ 0.2
NTWT | ≤ 0.2
TCLE | ≤ 0.2
HIHS | ≤ 0.2
GTTK | ≤ 0.2
RDQG | ≤ 0.2
ARDC | ≤ 0.2
MSIV | ≤ 0.2
QCLQ | ≤ 0.2
LLSY | ≤ 0.2
SVMF | ≤ 0.2
PDDS | ≤ 0.2
ASHT | ≤ 0.2
RYGH | ≤ 0.2
QKAV | ≤ 0.2
YILA | ≤ 0.2

Variant | one-hybrid fitness for binding NBS DNA
LRTQ | ≤ 0.2
EPRD | ≤ 0.2
PGVV | ≤ 0.2
RGRW | ≤ 0.2
MAVK | ≤ 0.2
GYWC | ≤ 0.2
TFST | ≤ 0.2
TPNH | ≤ 0.2
NRAC | ≤ 0.2
RAQL | ≤ 0.2
GGCT | ≤ 0.2
CNIG | ≤ 0.2
AAIN | ≤ 0.2
TSVP | ≤ 0.2
FVGM | ≤ 0.2
AIPC | ≤ 0.2
DVLD | ≤ 0.2
FNHG | ≤ 0.2
TPAV | ≤ 0.2
PTLL | ≤ 0.2
RPFC | ≤ 0.2
HAAD | ≤ 0.2
HCES | ≤ 0.2
PYMF | ≤ 0.2

Variant | one-hybrid fitness for binding NBS DNA
TTEC | ≤ 0.2
GVSC | ≤ 0.2
IING | ≤ 0.2
GHNW | ≤ 0.2
TKAN | ≤ 0.2
RDKQ | ≤ 0.2
HFHV | ≤ 0.2
RCPG | ≤ 0.2
ECES | ≤ 0.2
SRRH | ≤ 0.2
AKEG | ≤ 0.2
WYKT | ≤ 0.2
KRPW | ≤ 0.2
HFHY | ≤ 0.2
QLIK | ≤ 0.2
TKPC | ≤ 0.2
TGLE | ≤ 0.2
WWPR | ≤ 0.2
HANR | ≤ 0.2
YKDR | 0.512
ANSS | ≤ 0.2
LPPD | ≤ 0.2
DTAM | ≤ 0.2
GTYT | ≤ 0.2

Variant | one-hybrid fitness for binding NBS DNA
APAD | ≤ 0.2
TEQE | ≤ 0.2
IIST | ≤ 0.2
AKKN | ≤ 0.2
IDNR | 0.348
RLLP | ≤ 0.2
VLWG | ≤ 0.2
LIPG | ≤ 0.2
VICS | ≤ 0.2
TIMA | ≤ 0.2
HLAC | ≤ 0.2
GWIY | ≤ 0.2
KIDM | ≤ 0.2
FNAR | ≤ 0.2
NVYT | ≤ 0.2
EATL | ≤ 0.2
TTTA | ≤ 0.2
AYST | ≤ 0.2
HSQG | ≤ 0.2
LGVD | ≤ 0.2
ANLL | ≤ 0.2
QFLM | ≤ 0.2
HRGY | ≤ 0.2
PRLA | ≤ 0.2

Variant | one-hybrid fitness for binding NBS DNA
WERR | ≤ 0.2
IVPE | ≤ 0.2
FSQS | ≤ 0.2
QPVY | ≤ 0.2
GMSI | ≤ 0.2
QYDM | ≤ 0.2
QSES | ≤ 0.2
KALI | ≤ 0.2
SRMS | ≤ 0.2
SNVC | ≤ 0.2
WPRG | ≤ 0.2
IHIC | ≤ 0.2
WHSS | ≤ 0.2
CTQI | ≤ 0.2
NYFS | ≤ 0.2
AQTG | ≤ 0.2
TRMC | ≤ 0.2
QALI | ≤ 0.2
